Among all 91,000 compounds or so, about 130 (0.14%) were called active. The shares of active, inactive and inconclusive entries below differ from those in the screen. The call rests on the fitted dose curve; in most records, active means well fitted inhibition curve with a large enough effect; inconclusive means small, poorly fitted or top-dose-only effect; inactive means flat fitted curve, though single readings scatter. Potencies of inconclusive entries are doubtful fits and often do not repeat.
System: Uracil-DNA glycosylase
Test: Primary qHTS assay for inhibitors of Activation Induced Cytidine Deaminase (AID): UDG Counterscreen signal; further: nearly all actives have a fitted effect of over 65% in size
Conditions: FRET deamination/UDG coupled assay, UDG read, 4 h; series mostly up to 115 µM
Potency means the concentration at half of the fitted maximal effect; tags describe the fitted curve by direction and shape.

Compound | Potency
O=C(CSc1nnc(-c2ccco2)n1C1CCCCC1)N1CCN(c2ncccn2)CC1 | inactive
COC(=O)c1ccc2c(=O)n(CCCCCC(=O)NCc3ccc(Cl)cc3)c(=O)[nH]c2c1 | inconclusive: 89.1 µM [inhibitor, single point]
CC(C)(C)c1ccc(C(=O)NCC(c2cccs2)S(=O)(=O)c2ccccc2)cc1 (centres undefined) | inconclusive: 89.1 µM [inhibitor, partial curve, poor fit]
Cc1ccc(CSc2cn(CC(=O)N3CCCC3)c3ccccc23)cc1 | inconclusive: 79.4 µM [inhibitor, partial curve, poor fit]
Cc1cccc(CN2CCC(CNC(=O)c3c(C)oc4ncnc(N5CCCCC5)c34)CC2)c1 | inconclusive: 89.1 µM [inhibitor, single point]
O=C1C=CC(=CN(O)c2ccccc2)C=C1 | inconclusive: 63.1 µM [inhibitor, partial curve, poor fit]
CCN(CC)CCNC(=O)c1c(C)oc2ncn(C)c(=O)c12 | inconclusive: 89.1 µM [inhibitor, partial curve, poor fit]
CCN(c1ccccc1)c1nnc(NC(=O)Nc2ccc(Br)cc2)s1 | inconclusive: 89.1 µM [inhibitor, single point]
Cc1ccc(CN(Cc2ccco2)C(=O)COc2ccccc2C)cc1 | inconclusive: 56.2 µM [inhibitor, partial curve, poor fit]
COc1cccc(-c2nn(C)c3sc(C(=O)NCc4cc(OC)ccc4OC)cc23)c1 | inconclusive: 79.4 µM [inhibitor, single point]
COc1cccc(-c2cc(C(=O)Nc3c(C)nn(Cc4ccccc4Cl)c3C)no2)c1 | inconclusive: 100 µM [inhibitor, partial curve, poor fit]
COc1ccc(-c2c3c(=O)n(C)c(=O)n(C)c3c3n2-c2ccccc2NC3c2ccc(OC)cc2)cc1 (centres undefined) | inconclusive: 89.1 µM [inhibitor, single point]
COc1ccccc1C(=O)Oc1c(Sc2ccccc2)c(C)nn1C(C)(C)C | inconclusive: 70.8 µM [inhibitor, single point]
CC(CNC(=O)CC(c1ccccc1)c1ccccc1)OC12CC3CC(CC(C3)C1)C2 (centres undefined) | inactive
Cc1cc(C)cc(OCC(=O)Nc2nc3c(s2)CC(C(C)(C)C)CC3)c1 (centres undefined) | inconclusive: 100 µM [inhibitor, partial curve, poor fit]
CCCCOc1ccc(-c2nn(-c3ccccc3)cc2C2NC(=O)NC(C)=C2C(=O)OCC)cc1 (centres undefined) | inconclusive: 10 µM [inhibitor, full curve]
COc1ccccc1N1CCN(c2ncnc3c2cnn3-c2cc(Cl)ccc2C)CC1 | inconclusive: 89.1 µM [inhibitor, partial curve, poor fit]
Cc1ccc(OCc2nc(-c3ccc(C(=O)N4CCN(c5ccccc5F)CC4)cc3)oc2C)cc1 | inconclusive: 56.2 µM [inhibitor, partial curve, poor fit]
COc1ccc(OC)c(CNC(=O)c2cc3c(-c4ccc(OC)c(OC)c4)nn(C)c3s2)c1 | inconclusive: 89.1 µM [inhibitor, single point]
O=C(NCc1cccs1)c1ccc2c(=O)n3nc(Nc4ccccc4)sc3nc2c1 | inactive

Compound | Potency
CC(C)c1ccc(Cn2c(COc3ccccc3)nc3ccccc32)cc1 | inconclusive: 89.1 µM [inhibitor, single point]
COc1ccc(NC(c2nnc(-c3ccccc3)o2)c2ccccc2F)cc1Cl (centres undefined) | inconclusive: 89.1 µM [inhibitor, single point]
Cc1ccc(Nc2nc(NC3CCCC3)nc3c2cnn3-c2ccccc2)cc1C | inactive
Cc1cccc(-n2ncc(C(=O)N3CCOCC3)c2C2CCN(C(=O)OC(C)(C)C)CC2)c1 | inconclusive: 100 µM [inhibitor, single point]
Cc1c(Cl)cccc1NC(=O)N1CCN(C(=O)c2nsc3ccccc23)CC1 | inconclusive: 89.1 µM [inhibitor, single point]
Cc1ccc(C(C)C)c(OCCSc2nc(-c3ccccc3F)nc3cc(=O)[nH]n23)c1 | inconclusive: 89.1 µM [inhibitor, single point]
O=C(Cc1cccs1)N1CCN(c2ncnc3c2nnn3-c2ccc(F)cc2)CC1 | inconclusive: 89.1 µM [inhibitor, single point]
COc1ccc(OC)c(CCNC(=O)CS(=O)(=O)Cc2nc(-c3cccc(Cl)c3)oc2C)c1 | inactive
Cc1c(Cl)ccc2sc(N3CCN(C(=O)C(C)C)CC3)nc12 | inconclusive: 89.1 µM [inhibitor, single point]
CCOC(=O)c1c(C)oc2nc(C)nc(Nc3ccc(C)c(Cl)c3)c12 | inconclusive: 100 µM [inhibitor, partial curve, poor fit]
C/C(=N/Nc1ccccc1)c1ccc([N+](=O)[O-])cc1 | inactive
CC(C)c1ccc(Nc2ncnc3onc(-c4ccc(F)cc4)c23)cc1 | active: 89.1 µM
CCc1ccccc1-n1c(C)nc2cc(C(=O)NCCc3ccc(Cl)cc3)ccc21 | inconclusive: 39.8 µM [inhibitor, single point]
O=C(NCCCc1nc2ccccc2n1Cc1ccc(Cl)cc1)C1CCCCC1 | inconclusive: 89.1 µM [inhibitor, partial curve, poor fit]
COc1cc(NC(=O)CCS(=O)(=O)c2ccc3c(c2)CC(=O)N3C)cc(OC)c1OC | inconclusive: 79.4 µM [inhibitor, partial curve, poor fit]
CN(Cc1nc2ccsc2c(=O)[nH]1)C(=O)c1cnn(-c2ccc(Cl)cc2)c1 | inactive
COc1cccc(C(=O)c2c(N)c(-c3nc(-c4ccccc4)cs3)c3ccccn23)c1 | inconclusive: 44.7 µM [inhibitor, partial curve, poor fit]
CCOc1ccccc1NC(=O)c1nc(SC(C)C)ncc1Cl | inconclusive: 100 µM [inhibitor, single point]
Cc1sc(NC(=O)c2cccs2)c(C#N)c1C | inactive
